# Laboratory results taken from the supplement of paper PMC8728848.
# This is one part of the list.
# Key:
# Assay in all cases: glycan array binding signal (z-score within array); higher = stronger binding
# Settings in all cases: glycan notation: IUPAC condensed, linker removed
# [1] = molecular target: Fuc(a1-3)[Gal(b1-4)]GlcNAc(b1-3)Gal(b1-4)[Fuc(a1-3)]GlcNAc
# Outline: (§1)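 Columns mapping to the same glycan were averaged after glycan names were converted to IUPAC-condensed notation. The data come from 3228 arrays in the Consortium for Functional Glycomics database, limited to those with an available protein sequence. Binding is reported as a within-array Z-score averaged across arrays of one protein sequence and across linkers.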
# [2] = molecular target: Fuc(a1-3)[Gal(b1-4)]GlcNAc(b1-3)Gal(b1-4)[Fuc(a1-3)]GlcNAc(b1-3)Gal(b1-4)[Fuc(a1-3)]GlcNAc
# Outline: as §1
# [3] = molecular target: Fuc(a1-3)[Gal(b1-4)]GlcNAc(b1-3)GalNAc
# Outline: as §1
# [4] = molecular target: Fuc(a1-3)[Gal(b1-4)]GlcNAc(b1-4)Gal(b1-4)[Fuc(a1-3)]GlcNAc
# Outline: as §1
# [5] = molecular target: Fuc(a1-3)[Gal(b1-4)]GlcNAc(b1-4)Gal(b1-4)[Fuc(a1-3)]GlcNAc(b1-4)Gal(b1-4)[Fuc(a1-3)]GlcNAc
# Outline: as §1
# [6] = molecular target: Fuc(a1-3)[Gal(b1-4)]GlcNAc(b1-6)GalNAc
# Outline: as §1
# [7] = molecular target: Fuc(a1-3)[Gal(b1-4)]GlcNAc(b1-6)[Gal(b1-3)GlcNAc(b1-3)]Gal(b1-4)Glc
# Outline: as §1
# [8] = molecular target: Fuc(a1-3)[Gal(b1-4)]GlcNAc6S
# Outline: as §1
# [9] = molecular target: Fuc(a1-3)[Gal3S(b1-4)]Glc
# Outline: as §1
# [10] = molecular target: Fuc(a1-3)[Gal3S(b1-4)]Glc6S
# Outline: as §1
# [11] = molecular target: Fuc(a1-3)[Gal3S(b1-4)]GlcNAc
# Outline: as §1
# [12] = molecular target: Fuc(a1-3)[Gal3S(b1-4)]GlcNAc6S
# Outline: as §1
# [13] = molecular target: Fuc(a1-3)[GalNAc(b1-4)]GlcNAc
# Outline: as §1
# [14] = molecular target: Fuc(a1-3)[GalNAc(b1-4)]GlcNAc6S
# Outline: as §1
# [15] = molecular target: Fuc(a1-3)[Neu5Ac(a2-3)]Gal(b1-4)GlcNAc(b1-3)GalNAc
# Outline: as §1
# Fuc(a1-4)GlcNAc = molecular target: Fuc(a1-4)GlcNAc
# Outline: as §1
# Fuc(b1-3)GlcNAc = molecular target: Fuc(b1-3)GlcNAc
# Outline: as §1
# Gal(a1-2)Gal = molecular target: Gal(a1-2)Gal
# Outline: as §1
# Gal(a1-3)Gal = molecular target: Gal(a1-3)Gal
# Outline: as §1
# Gal(a1-3)Gal(b1-3)GlcNAc = molecular target: Gal(a1-3)Gal(b1-3)GlcNAc
# Outline: as §1
# [16] = molecular target: Gal(a1-3)Gal(b1-3)GlcNAc(b1-2)Man
# Outline: as §1
# [17] = molecular target: Gal(a1-3)Gal(b1-3)GlcNAc(b1-2)Man(a1-3)[Gal(a1-3)Gal(b1-3)GlcNAc(b1-2)Man(a1-6)]Man(b1-4)GlcNAc(b1-4)GlcNAc
# Outline: as §1
# [18] = molecular target: Gal(a1-3)Gal(b1-3)GlcNAc(b1-3)GalNAc
# Outline: as §1
# [19] = molecular target: Gal(a1-3)Gal(b1-3)GlcNAc(b1-6)GalNAc
# Outline: as §1
# [20] = molecular target: Gal(a1-3)Gal(b1-3)[Fuc(a1-4)]GlcNAc(b1-2)Man(a1-3)[Gal(a1-3)Gal(b1-3)[Fuc(a1-4)]GlcNAc(b1-2)Man(a1-6)]Man(b1-4)GlcNAc(b1-4)GlcNAc
# Outline: as §1
# Gal(a1-3)Gal(b1-4)Glc = molecular target: Gal(a1-3)Gal(b1-4)Glc
# Outline: as §1
# Gal(a1-3)Gal(b1-4)GlcNAc = molecular target: Gal(a1-3)Gal(b1-4)GlcNAc
# Outline: as §1
# [21] = molecular target: Gal(a1-3)Gal(b1-4)GlcNAc(b1-2)Man
# Outline: as §1
# [22] = molecular target: Gal(a1-3)Gal(b1-4)GlcNAc(b1-2)Man(a1-3)[Gal(a1-3)Gal(b1-4)GlcNAc(b1-2)Man(a1-6)]Man(b1-4)GlcNAc(b1-4)GlcNAc
# Outline: as §1
# [23] = molecular target: Gal(a1-3)Gal(b1-4)GlcNAc(b1-3)GalNAc
# Outline: as §1
# [24] = molecular target: Gal(a1-3)Gal(b1-4)GlcNAc(b1-6)GalNAc
# Outline: as §1
# [25] = molecular target: Gal(a1-3)Gal(b1-4)[Fuc(a1-3)]GlcNAc
# Outline: as §1
# [26] = molecular target: Gal(a1-3)Gal(b1-4)[Fuc(a1-3)]GlcNAc(b1-2)Man(a1-3)[Gal(a1-3)Gal(b1-4)[Fuc(a1-3)]GlcNAc(b1-2)Man(a1-6)]Man(b1-4)GlcNAc(b1-4)GlcNAc
# Outline: as §1
# Gal(a1-3)GalNAc = molecular target: Gal(a1-3)GalNAc
# Outline: as §1
# [27] = molecular target: Gal(a1-3)[Gal(a1-4)]Gal(b1-4)GlcNAc
# Outline: as §1
# [28] = molecular target: Gal(a1-4)Gal(b1-3)GlcNAc(b1-2)Man(a1-3)[Gal(a1-4)Gal(b1-3)GlcNAc(b1-2)Man(a1-6)]Man(b1-4)GlcNAc(b1-4)GlcNAc
# Outline: as §1
# Gal(a1-4)Gal(b1-4)Glc = molecular target: Gal(a1-4)Gal(b1-4)Glc
# Outline: as §1
# Gal(a1-4)Gal(b1-4)GlcNAc = molecular target: Gal(a1-4)Gal(b1-4)GlcNAc
# Outline: as §1
# [29] = molecular target: Gal(a1-4)Gal(b1-4)GlcNAc(b1-2)Man(a1-3)[Gal(a1-4)Gal(b1-4)GlcNAc(b1-2)Man(a1-6)]Man(b1-4)GlcNAc(b1-4)GlcNAc
# Outline: as §1
# [30] = molecular target: Gal(a1-4)Gal(b1-4)GlcNAc(b1-3)Gal(b1-4)Glc
# Outline: as §1
# Gal(a1-4)GlcNAc = molecular target: Gal(a1-4)GlcNAc
# Outline: as §1
# Gal(a1-6)Glc = molecular target: Gal(a1-6)Glc
# Outline: as §1
# Gal(b1-2)Gal = molecular target: Gal(b1-2)Gal
# Outline: as §1
# Gal(b1-3)Gal = molecular target: Gal(b1-3)Gal
# Outline: as §1
# Gal(b1-3)Gal(b1-4)GlcNAc = molecular target: Gal(b1-3)Gal(b1-4)GlcNAc
# Outline: as §1
binder,measurement,setting,value
"GNA (Galanthus nivalis), P30617 (protein) MAKASLLILAAIFLGVITPSCLSDNILYSGETLSTGEFLNYGSFVFIMQEDCNLVLYDVDKPIWATNTGGLSRSCFLSMQTDGNLVVYNPSNKPIWASNTGGQNGNYVCILQKDRNVVIYGTDRWATGTHTGLVGIPASPPSEKYPTAGKIKLVTAK",glycan array binding signal (z-score),[1],-0.167
same,glycan array binding signal (z-score),[2],-0.176
same,glycan array binding signal (z-score),[3],-0.158
same,glycan array binding signal (z-score),[4],-0.127
same,glycan array binding signal (z-score),[5],0.029
same,glycan array binding signal (z-score),[6],-0.159
same,glycan array binding signal (z-score),[7],-0.165
same,glycan array binding signal (z-score),[8],-0.106
same,glycan array binding signal (z-score),[9],-0.158
same,glycan array binding signal (z-score),[10],0.067
same,glycan array binding signal (z-score),[11],-0.009
same,glycan array binding signal (z-score),[12],-0.007
same,glycan array binding signal (z-score),[13],-0.208
same,glycan array binding signal (z-score),[14],-0.171
same,glycan array binding signal (z-score),[15],0.284
same,glycan array binding signal (z-score),Fuc(a1-4)GlcNAc,-0.063
same,glycan array binding signal (z-score),Fuc(b1-3)GlcNAc,-0.178
same,glycan array binding signal (z-score),Gal(a1-2)Gal,-0.158
same,glycan array binding signal (z-score),Gal(a1-3)Gal,-0.205
same,glycan array binding signal (z-score),Gal(a1-3)Gal(b1-3)GlcNAc,-0.23
same,glycan array binding signal (z-score),[16],-0.171
same,glycan array binding signal (z-score),[17],-0.111
same,glycan array binding signal (z-score),[18],-0.18
same,glycan array binding signal (z-score),[19],-0.172
same,glycan array binding signal (z-score),[20],0.43
same,glycan array binding signal (z-score),Gal(a1-3)Gal(b1-4)Glc,-0.18
same,glycan array binding signal (z-score),Gal(a1-3)Gal(b1-4)GlcNAc,-0.263
same,glycan array binding signal (z-score),[21],-0.167
same,glycan array binding signal (z-score),[22],2.17
same,glycan array binding signal (z-score),[23],-0.164
same,glycan array binding signal (z-score),[24],-0.182
same,glycan array binding signal (z-score),[25],-0.198
same,glycan array binding signal (z-score),[26],-0.106
same,glycan array binding signal (z-score),Gal(a1-3)GalNAc,-0.081
same,glycan array binding signal (z-score),[27],-0.088
same,glycan array binding signal (z-score),[28],0.249
same,glycan array binding signal (z-score),Gal(a1-4)Gal(b1-4)Glc,-0.113
same,glycan array binding signal (z-score),Gal(a1-4)Gal(b1-4)GlcNAc,-0.161
same,glycan array binding signal (z-score),[29],0.518
same,glycan array binding signal (z-score),[30],-0.192
same,glycan array binding signal (z-score),Gal(a1-4)GlcNAc,-0.158
same,glycan array binding signal (z-score),Gal(a1-6)Glc,-0.01
same,glycan array binding signal (z-score),Gal(b1-2)Gal,-0.159
same,glycan array binding signal (z-score),Gal(b1-3)Gal,-0.128
same,glycan array binding signal (z-score),Gal(b1-3)Gal(b1-4)GlcNAc,-0.171
